Experimental data published in paper PMC2757638 (Molecular cell, 2009).

B1: recombinant Cse4 point mutant H207A (natural protein)
chain: not shown
B2: recombinant Cse4 point mutant R210A (natural protein)
chain: not shown
B3: recombinant Cse4 point mutant T212A (natural protein)
chain: not shown
B4: recombinant Cse4 point mutant D217A (natural protein)
chain: not shown
B5: recombinant Cse4 point mutant L220A (natural protein)
chain: not shown

Legend:
[1] = target: recombinant yeast histone H4 (S. cerevisiae, UniProt P02309); assay: SEC
SEC = target: the molecule itself; assay: SEC

| Binder | binding result [1] | binding result (SEC) |
| --- | --- | --- |
| B1 | binds | binds |
| B2 | binds | binds |
| B3 | binds | binds |
| B4 | binds | binds |
| B5 | binds | binds |
